# In publication PMC6919601, “Identification of Plasmodium dipeptidyl aminopeptidase allosteric inhibitors by high throughput screening” (PLoS ONE, 2019):
# Several values for one entry are separate records, joined by “and”; a condition that tells them apart may be missing. Equal values may be shown once. The whole screen tested about 110,000 compounds, of which about 230 (0.21%) showed an effect of 50% or more. The list shows a part of the results.
# Biological target: DPAP1 (Plasmodium falciparum, UniProt Q8IIJ9)
# Assay: primary screen, percent inhibition; read by cleavage of a fluorogenic dipeptide substrate; higher = more effect of the substance
# Design: species or system P. falciparum D10 trophozoite lysates; single well
# Procedure: HTS was performed in black 384-well plates. The first and last two columns of each plate contained our negative (DMSO) and positive (10 μM JCP410) controls, and the 20 central columns the test compounds at 10 μM. Compounds were first diluted 50-fold into assay buffer (50 mM sodium acetate, 5 mM MgCl2, 10 mM β-mercaptoethanol, and 0.1% CHAPS, pH 5.5) from a 10 mM DMSO stock plates. One microliter of this 200 μM intermediate stock plate was dispensed into the assay plate. […] After 30 min, the reaction was quenched with 20 μL of 0.5 M acetic acid, and the fluorescent intensity measured at 523 nm (λex = 492 nm) using an Analyst HT multimode plate reader (Molecular Devices).
# 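Also: 30 min substrate incubation versus DMSO and 10 µM JCP410 controls.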
# Sequence of DPAP1 (Q8IIJ9 whole entry, looked up): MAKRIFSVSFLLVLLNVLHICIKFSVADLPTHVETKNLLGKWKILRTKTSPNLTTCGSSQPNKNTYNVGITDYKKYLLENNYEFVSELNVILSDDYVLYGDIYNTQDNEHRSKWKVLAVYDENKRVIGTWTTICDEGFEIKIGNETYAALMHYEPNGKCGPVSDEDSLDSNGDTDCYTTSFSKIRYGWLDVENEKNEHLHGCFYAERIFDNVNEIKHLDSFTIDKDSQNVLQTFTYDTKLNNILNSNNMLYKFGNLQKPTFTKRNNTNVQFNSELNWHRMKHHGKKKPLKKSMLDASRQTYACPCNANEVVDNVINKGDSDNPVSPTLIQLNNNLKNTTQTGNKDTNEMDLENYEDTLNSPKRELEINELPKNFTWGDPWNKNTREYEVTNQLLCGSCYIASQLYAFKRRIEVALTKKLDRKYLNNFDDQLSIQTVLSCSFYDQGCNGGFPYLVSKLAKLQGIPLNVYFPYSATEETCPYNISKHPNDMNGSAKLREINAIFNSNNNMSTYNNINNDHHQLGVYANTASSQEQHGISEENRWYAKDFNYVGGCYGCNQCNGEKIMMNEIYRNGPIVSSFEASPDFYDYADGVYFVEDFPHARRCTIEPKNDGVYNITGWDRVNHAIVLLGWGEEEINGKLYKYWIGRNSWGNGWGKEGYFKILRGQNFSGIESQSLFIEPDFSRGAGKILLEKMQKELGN
row,Compound,% Inhibition @ 10 uM
1,COc1ccc(-c2nc3c4cnn(-c5ccc(OC)cc5)c4ncn3n2)cc1,-2.85%
2,Cc1cccc(Oc2nc3c(C)cccn3c(=O)c2/C=C(\C#N)C(=O)NCCc2ccccc2)c1C,0.315%
3,Cc1ccc(/C=C2/SC(N3CCN(C)CC3)=NC2=O)cc1,3.72%
4,CCOc1ccc(NC(=O)/C(C#N)=C\c2cn(CC)c3ccccc23)cc1,5.2%
5,O=S(=O)(c1ccc(Cl)cc1)c1nc(-c2cccc(Br)c2)oc1N1CCOCC1,-4.93%
6,Cc1ccc(S(=O)(=O)/C(C#N)=C/c2c(Oc3ccc(Cl)c(C)c3)nc3ccccn3c2=O)cc1,17.7%
7,COC(=O)c1ccc(-c2nc(COc3cc(C)c(Cl)c(C)c3)no2)cc1,0.758%
8,N#CCNC(=O)[C@H](Cc1nccs1)NC(=O)c1ccc(-c2ccccc2Cl)nc1,-6.98%
9,Cc1ccc2c(c1)-c1onc(C(=O)N3CCC4(CC3)OCCO4)c1CO2,0.0281%
10,CNC(=O)CN(c1ccc(F)cc1)S(=O)(=O)c1ccccc1,-1.42%
11,CCOc1ccc(CNC(=O)CCC(=O)N2CCSc3ncccc32)cc1OC,0.882%
12,O=C(CCS(=O)(=O)Cc1ccc(Cl)cc1)NCc1ccc2c(c1)OCO2,3.79%
13,O=C(NCC1CCCO1)c1ccc(CNS(=O)(=O)c2cccc(C(F)(F)F)c2)cc1 (centres unmarked),-1.55%
14,COc1ccc(S(=O)(=O)CCO)cc1N,-4.5%
15,Cc1cc(C)n(-c2nc(O)cc(-c3ccccc3)n2)n1,-6.01%
16,CCOCCCNC(=O)COc1ccc(Cl)cc1,-3.53%
17,COc1ccc(C(=O)Nc2cccc(NC(=O)c3ccc(OC)cc3OC)n2)c(OC)c1,0.389%
18,Nn1c(SCc2ccccc2)nnc1C(F)(F)F,-3.41%
19,CC1(C)CC(=O)c2sc3nc(-c4ccc(Cl)cc4)cn3c2C1,-1.36%
20,CC1=C(C(=O)OCCOC(C)C)C(c2ccccc2C)CC(=O)N1 (centres unmarked),-6.14%
21,Cc1c(C(=O)NCC(C)c2ccccc2)oc2c1-c1n[nH]cc1CC2 (centres unmarked),5.42%
22,Cc1ccccc1C(=O)c1cccn1CC(=O)N1CC(C)CC(C)C1 (centres unmarked),-5.89%
23,CCC(C)Sc1nc(O)cc(=O)n1-c1ccccc1 (centres unmarked),1.83%
24,COC(=O)c1cc(S(=O)(=O)N2CC=C(c3ccccc3)CC2)c[nH]1,2.81%
25,Cc1cc(OCC(=O)N2CCN(c3ccccn3)CC2)ccc1Br,3.66%
26,CCn1c(C(=O)O)c(C=O)c2ccccc21,1.63%

row,Compound,% Inhibition @ 10 uM
1,CCOC(=O)c1cc(-c2ccc(OC)c(S(=O)(=O)NCCN(C)C)c2)on1,0.92%
2,CCCCN1C(C)=CC(=C2C(=O)NC(=O)NC2=O)C=C1C(F)(F)F,21.7%
3,O=C(O)c1cnc2ncnn2c1O,4.58%
4,CC1=C(C)CC2C(=O)N(Cc3ccccc3)C(=O)C2C1 (centres unmarked),3.53%
5,CCCCO/C(O)=C1\C(C)=NC2=C(C(=O)CCC2)C1c1ccc(OC)c(OC)c1OC (centres unmarked),16.8%
6,Cc1ccccc1-n1c(=O)[nH]c(O)c(C2NCCc3ccccc32)c1=O (centres unmarked),-3.85%
7,COCCCn1c2c(c(=O)[nH]c1=O)C(c1ccc(Cl)cc1Cl)C1=C(O)c3ccccc3C1=N2 (centres unmarked),2.25%
8,CC1CN(c2ccc([N+](=O)[O-])c(N3CCOCC3)c2)CCN1 (centres unmarked),-4.8%
9,O=c1/c(=C/C=C/c2ccccc2)sc2nc3ccccc3n12,4.95% and -4.01%
10,CCn1c(CCc2ccccc2)nnc1SCc1nc(-c2ccc(OC)cc2)no1,-10.1%
11,CN1C(=O)C(=C(NCc2ccccc2)c2ccccc2)C(=O)N(C)C1=O,-0.522%
12,COc1ccc(Cl)cc1S(=O)(=O)Oc1ccc2ccccc2c1,1.67%
13,COc1cc(/C=C2/N=C(C3CCCCC3)OC2=O)cc(OC)c1OC,10.7%
14,CCOc1cc(CN2C[C@@H]3C[C@H](C2)c2cccc(=O)n2C3)ccc1OC,-2.48%
15,O=C(NC(=O)c1c(F)cccc1F)Nc1ccc(Cl)cc1,1.48%
16,C/C=C/C=C/C(=O)Nc1ccc2nc(SC)sc2c1,18.3%
17,COc1cc(/C=C2\SC(=S)N(CC(=O)O)C2=O)ccc1O,-6.09%
18,Cc1[nH]c2ccc(C(=O)N3CCc4ccccc4C3)cc2c1C,4.92%
19,CCOC(=O)N1CCN(C(=O)c2ccc(CSc3nc4ccncc4[nH]3)cc2)CC1,3.4%
20,COc1ccccc1-c1c(C)nn2c(SCC(=O)NCc3ccccn3)cc(C)nc12,-5.55%
21,CCCn1c2ccccc2c2cc(C(=O)O)ccc21,3.87%
22,COc1ccc(-c2csc(N3C(=N)SCC3=O)n2)cc1,0.161%
23,COc1ccc(-c2csc(Nc3cccnc3)n2)cc1,7.97%
24,Cc1ccc(Cl)cc1N1CCN(C(=O)c2ccccc2CC(=O)O)CC1,0.528%
25,NC(=O)COc1ccc(/C=C2\S/C(=N/c3ccccc3)N(C3CCCC3)C2=O)cc1,5.39%
26,Cc1sc(NC(=O)c2ccc(C(C)(C)C)cc2)c(C(N)=O)c1C,3.72%

row,Compound,% Inhibition @ 10 uM
1,O=c1oc2ccccc2c(O)c1CN1CCCC1,-5.41%
2,CC(C)Cn1cnc2sc3c(c2c1=N)CCCCC3,0.755%
3,O=C(NC1CCSC1=O)c1ccc(Cl)cc1 (centres unmarked),1.91%
4,Cc1ccc(C(=O)CC2(O)C(=O)Nc3ccc(Br)cc32)cc1 (centres unmarked),-3.83%
5,Cc1ccccc1Cn1c(C(=O)O)c(CNCCN2CCOCC2)c2ccccc21,-1.44%
6,CN1C2=C(C(=O)CC(C)(C)C2)C(c2cc(Cl)ccc2O)C2=C1CC(C)(C)CC2=O,5.09%
7,c1cc2[nH]ncc2cc1NCC1CCCCC1,0.217%
8,Cc1c(NC(=O)c2cc3ccccc3oc2=O)c(=O)n(-c2ccccc2)n1C,4.6%
9,COc1cccc(C2CC3=Nc4ccccc4NC(c4cccs4)C3=C(O)C2)c1 (centres unmarked),0.851%
10,COc1cc(C2CC(=O)N3CN(Cc4ccco4)CSC3=C2C#N)ccc1O (centres unmarked),17.5%
11,CCC(C)N1C(=O)S/C(=C/c2ccc(C(=O)O)cc2)C1=O (centres unmarked),1.31%
12,Nc1ccc(Cc2ccc(NC(=O)c3cccnc3)cc2)cc1,-1.17%
13,CC(C)CN1C(=O)NC(NC(=O)c2ccccc2F)(C(F)(F)F)C1=O (centres unmarked),5.12%
14,COc1cc(C2C(C#N)=C(N)OC3=C2C(=O)CC(C)(C)C3)cc2c1OCO2 (centres unmarked),2.38%
15,CCOc1ccc(C(=O)Nc2ccc(C)cc2Br)cc1,14.3%
16,COc1ccccc1NC(=O)C1=C(C)N=C2CC(C)(C)CC(O)=C2C1c1cccc(Br)c1 (centres unmarked),-0.941%
17,O=S(=O)(Nc1nc2ccccc2nc1NCc1ccccc1)c1ccc(Cl)cc1,0.275%
18,COc1ccc(C(=O)Nc2nc3nccc(-c4ccccc4)n3n2)cc1,-1.28%
19,Cn1c(=O)c2c(nc(Oc3ccc(C(C)(C)C)cc3)n2C)n(C)c1=O,4.74%
20,CC(=O)N1CCN(c2ccc(NCc3cccc4ccccc34)cc2)CC1,-4.21%
21,N#Cc1cc2c(nc1SCC(=O)N1CCOCC1)CCCCC2,2.7%
22,CCCNC(=O)c1ccc(-c2nn(C)c(=O)c3ccccc23)cc1,0.315%
23,C=CCOc1ccc(/C=c2\sc3nc(-c4ccccc4)nn3c2=O)cc1OC,1.91%
24,O=S1(=O)N=C(Nc2nc(-c3ccc(Cl)cc3)cs2)c2ccccc21,5.12%
25,CCN1C(=O)CC(c2ccco2)=Nc2ccccc21,-2.64% and -0.519%
26,O=C(Cn1ncc2c1-c1ccccc1OC2)NC1CCCc2ccccc21 (centres unmarked),2.6%

row,Compound,% Inhibition @ 10 uM
1,CCCN1CCC(Nc2ccc3c[nH]nc3c2)CC1,-3.6%
2,Cc1nn(-c2ccccc2)c(C)c1CC(=O)NCCc1ccccc1,2.38%
3,CCCC1=NC(c2ccccc2)(c2ccccc2)c2ccccc2O1,-0.712%
4,COc1ccc(C(=O)Nc2nncs2)c(OC)c1,-7.23%
5,Cc1nc2c(c(C)nn2C)c(C)c1CCC(=O)NCc1ccco1,-4.24%
6,CSc1ccc(CN2CCN(c3ccccc3F)CC2)cc1,0.708%
7,NC(=O)CN1CCn2c3c(c4cc(C5CCCCC5)ccc42)CCCC31 (centres unmarked),0.486%
8,O=[N+]([O-])c1ccc(CN2CCOCC2)cc1,2.7%
9,CCOC(=O)C1=C(C)N=c2s/c(=C\c3ccc(N(CC)CC)cc3)c(=O)n2C1c1ccc(Cl)cc1 (centres unmarked),-3.44%
10,O=C(Cn1ncc2c(Cl)cccc21)NCCc1ccccc1,-1.11%
11,Cc1cccc2c1Oc1nc(-c3ccccc3)nc(O)c1C2,5.48%
12,COC(=O)c1c(C)nn(-c2ccccc2)c1NC(=O)c1ccc(F)cc1,-7.23%
13,CC(C)(C)c1ccc(OCCOCCN2CCNCC2)cc1,-6.75%
14,O=Cc1ccc(OCc2ccccc2F)cc1,-0.597%
15,NCc1nnnn1-c1ccccc1,2.19%
16,CC(CCN1CCCC(C(N)=O)C1)c1ccccc1 (centres unmarked),0.217%
17,Cc1coc2c(C)c3oc(=O)c(CC(=O)NCc4ccc(F)cc4)c(C)c3cc12,2.54%
18,Cc1c(C(N)=O)c(-c2ccccc2)nn1-c1ccccc1,3.48%
19,CN(C)CCCNC(=O)/C(=C\c1ccc(-c2ccc(Cl)cc2)o1)NC(=O)c1ccccc1,-12.7%
20,Clc1cccc(OCCCN2CCCC2)c1,1.35%
21,COCCCNc1nc2c(c(=O)n(C)c(=O)n2C)n1Cc1c(Cl)cccc1Cl,-5.9%
22,O=C(NC1CCCCCC1)c1cccc([N+](=O)[O-])c1,-2.6%
23,COc1ccc(CN2CCN(c3cccc(Cl)c3)CC2)cc1Br,1.17%
